Assay results published in the supplement of paper PMC3334620.
The full ranking holds about 33,000 sequences; the median of “E-score (-0.5 to 0.5)” is about -0.035, and the highest 2% start at about 0.34. The list shows a part of the results.

target: T1, Mot3 (UniProt P54785); assay: PBM E-score (8-mer binding enrichment) (E-score (-0.5 to 0.5)); higher = stronger / more preferred TF binding; most listed sequences are background and not binding sites; conditions: protein concentration: 200 nM; construct: GST-full length
T1 sequence: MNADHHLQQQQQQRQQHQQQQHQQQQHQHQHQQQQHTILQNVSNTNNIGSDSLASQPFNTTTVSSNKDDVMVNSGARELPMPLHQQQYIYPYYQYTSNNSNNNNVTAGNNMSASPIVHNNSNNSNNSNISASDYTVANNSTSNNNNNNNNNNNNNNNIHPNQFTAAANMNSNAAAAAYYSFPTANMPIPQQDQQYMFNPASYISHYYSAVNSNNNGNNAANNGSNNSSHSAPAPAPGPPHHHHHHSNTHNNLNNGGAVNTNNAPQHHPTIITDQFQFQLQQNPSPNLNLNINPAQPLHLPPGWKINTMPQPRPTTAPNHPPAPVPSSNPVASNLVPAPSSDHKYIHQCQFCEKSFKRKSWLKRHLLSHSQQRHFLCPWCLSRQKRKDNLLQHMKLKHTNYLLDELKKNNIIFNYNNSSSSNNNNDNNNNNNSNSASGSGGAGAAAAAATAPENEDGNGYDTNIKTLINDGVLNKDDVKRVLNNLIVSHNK
Outline: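 Yeast transcription factors, full-length or as DNA-binding domains, were expressed with a GST tag using PURExpress in vitro transcription/translation. At about 100-200 nM they were applied to universal all-10-mer Agilent arrays, double-stranded by primer extension on fresh or once-stripped slides. Fluorescent anti-GST detected bound protein, and masliner normalised the scans. E-scores for ungapped eight-base words, pooled with reverse complements, came from the Universal PBM Analysis Suite.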

First: AATTATAA
Second: TACCTTGA
The “PBM E-score” value of the first is lower: 0.164 for the first, 0.288 for the second.

Going from CCCAAATA to GAAGACCC, the “PBM E-score” value falls from -0.0495 to -0.266.

Going from TAAATGGA to ATGTCAAG, the “PBM E-score” value rises from 0.0377 to 0.256.

First: AAATAGGC
Second: AGTATGGG
The “PBM E-score” value of the first is higher: 0.331 for the first, -0.104 for the second.

Compared with CTAATAGC, CATAAGAA is higher in “PBM E-score” value: -0.0568 for the first, 0.216 for the second.

Compared with GGAGCCTA, AAGTGCGC is lower in “PBM E-score” value: 0.271 for the first, -0.171 for the second.

Going from GTATAAAC to GAGGCGCA, the “PBM E-score” value falls from 0.186 to -0.126.

First: CAAGGGCC
Second: AAGTTCCA
The “PBM E-score” value of the first is lower: -0.25 for the first, -0.0886 for the second.

First: ATAGTTTG
Second: AGCCACGC
The “PBM E-score” value of the first is higher: 0.136 for the first, -0.18 for the second.

First: CAAATGAA
Second: TCCCCCCA
The “PBM E-score” value of the first is higher: 0.0984 for the first, -0.354 for the second.

First: AAAACCCC
Second: TCTACACA
The “PBM E-score” value of the first is lower: -0.0261 for the first, 0.361 for the second.

First: CCCGCAGA
Second: GCCTTGAA
The “PBM E-score” value of the first is lower: -0.147 for the first, 0.276 for the second.

Going from AATCCTAG to ATGCGATA, the “PBM E-score” value falls from -0.0582 to -0.0922.

Compared with GCGGTTTA, ATGCGAGG is lower in “PBM E-score” value: -0.0306 for the first, -0.168 for the second.

First: AAACGTTC
Second: AGCTAGAA
The “PBM E-score” value of the first is higher: 0.0317 for the first, -0.164 for the second.

Compared with AGCTGAGA, GGACGACC is lower in “PBM E-score” value: 0.00136 for the first, -0.252 for the second.

Going from CAGCAACG to CCCGGTCG, the “PBM E-score” value falls from 0.0367 to -0.273.

First: ATGGCTCC
Second: AAATTGCC
The “PBM E-score” value of the first is lower: -0.0462 for the first, 0.164 for the second.

Going from CCGCGACC to TAAAGTTA, the “PBM E-score” value rises from -0.299 to 0.0979.

Compared with GAGGCTCC, GTGCTGTA is higher in “PBM E-score” value: -0.069 for the first, 0.0626 for the second.

Compared with GAGACCGC, CGCTTGTC is higher in “PBM E-score” value: -0.142 for the first, -0.0636 for the second.

First: CCAGCATC
Second: AATCGTAA
The “PBM E-score” value of the first is lower: -0.224 for the first, 0.0756 for the second.

Going from CATGAATC to AGCAGCGG, the “PBM E-score” value falls from -0.00284 to -0.27.

First: ACCGCTCT
Second: CTGATCTA
The “PBM E-score” value of the first is lower: -0.187 for the first, -0.0493 for the second.

Going from CTACCCCA to ATAAAGAA, the “PBM E-score” value rises from -0.248 to 0.169.

Compared with AAAAGGTA, ACTCCGAA is lower in “PBM E-score” value: 0.289 for the first, -0.194 for the second.

First: CATGTAAA
Second: ACTATTAG
The “PBM E-score” value of the first is higher: 0.436 for the first, -0.0953 for the second.

Going from TAGTCATA to GGAAGACA, the “PBM E-score” value rises from -0.0322 to 0.031.

Compared with AATACCAT, CCAATGGC is lower in “PBM E-score” value: 0.18 for the first, -0.266 for the second.

Going from AGTCAGCC to CCGAGTCA, the “PBM E-score” value rises from -0.239 to -0.157.

Compared with TACCCGGA, GATAAAAC is higher in “PBM E-score” value: -0.0694 for the first, -0.0135 for the second.

First: CAATCATA
Second: TAAGGGCA
The “PBM E-score” value of the first is lower: 0.0739 for the first, 0.112 for the second.

Compared with ACCAGGGC, ATCGGTAG is higher in “PBM E-score” value: -0.151 for the first, -0.0799 for the second.

Compared with AACACTGC, ACTACGGA is lower in “PBM E-score” value: 0.0467 for the first, -0.0706 for the second.

Going from ATTCAAGC to TCTGGTCA, the “PBM E-score” value falls from 0.0242 to -0.0723.

Compared with CACTAGGC, AGGAGTGG is lower in “PBM E-score” value: 0.156 for the first, -0.16 for the second.

First: CACCAAAA
Second: ATTACTTG
The “PBM E-score” value of the first is lower: 0.15 for the first, 0.248 for the second.

Going from ATGCGCTG to CACCAAAC, the “PBM E-score” value rises from -0.00636 to 0.0828.

Going from ACACGCAT to CTGTGACC, the “PBM E-score” value falls from 0.294 to -0.204.

First: GCGCCTAC
Second: CCGCCGTA
The “PBM E-score” value of the first is higher: 0.358 for the first, -0.264 for the second.

Compared with GAGGAACA, CCCCCCAA is lower in “PBM E-score” value: 0.176 for the first, -0.362 for the second.

Compared with CCCGTGGA, GAACTCTC is higher in “PBM E-score” value: -0.314 for the first, -0.159 for the second.

Going from AATACGGT to GGGTGGGA, the “PBM E-score” value falls from 0.117 to -0.317.

First: AGAAGGCG
Second: CTGGATCC
The “PBM E-score” value of the first is higher: 0.27 for the first, -0.134 for the second.

Compared with GATCCTTA, AATCTTTA is higher in “PBM E-score” value: 0.0998 for the first, 0.127 for the second.

Compared with CCCGGTAA, ACTACTAA is higher in “PBM E-score” value: -0.0361 for the first, 0.115 for the second.

Compared with AAATTCGT, AACTCTAT is lower in “PBM E-score” value: 0.0284 for the first, -0.0704 for the second.

First: TCCCTGAA
Second: CTAGTCTA
The “PBM E-score” value of the first is higher: -0.0633 for the first, -0.318 for the second.

Compared with ACCAGTTG, TAGCAAAA is lower in “PBM E-score” value: 0.026 for the first, 0.0209 for the second.

Compared with GTGACCAC, CTACCATA is higher in “PBM E-score” value: -0.231 for the first, -0.14 for the second.

Compared with CCTAGACC, AACCAGGA is higher in “PBM E-score” value: -0.0345 for the first, 0.0718 for the second.

First: CGCCACGC
Second: CTATAGAG
The “PBM E-score” value of the first is lower: -0.224 for the first, -0.107 for the second.

First: CCTTGGTC
Second: AAAAGCTC
The “PBM E-score” value of the first is higher: -0.00825 for the first, -0.174 for the second.

Going from CGTGTAAA to CGCAGGAA, the “PBM E-score” value falls from 0.438 to 0.356.

Going from TACTTAAA to CCTATCAA, the “PBM E-score” value falls from 0.115 to 0.0628.

Compared with CAGCGGCG, CAGGATGA is lower in “PBM E-score” value: -0.0232 for the first, -0.185 for the second.

Compared with AACGCTGA, TGTAAAAA is higher in “PBM E-score” value: 0.111 for the first, 0.379 for the second.

Going from ACTTGACT to CGCTCCTA, the “PBM E-score” value falls from 0.0659 to -0.136.

Compared with CAATATGC, AGGTTTTA is lower in “PBM E-score” value: -0.0568 for the first, -0.0611 for the second.

Compared with ATCGCGTC, AGTGCACG is lower in “PBM E-score” value: 0.0723 for the first, -0.057 for the second.

Going from CGCCGCAA to CGATTGCC, the “PBM E-score” value rises from -0.0254 to 0.261.

Going from AAGTGTAT to CTCGATAC, the “PBM E-score” value rises from 0.117 to 0.24.

Going from AGCAAAAG to CCTAGAAA, the “PBM E-score” value rises from -0.101 to 0.0447.

First: TATCTCCA
Second: CCTGCCAA
The “PBM E-score” value of the first is lower: -0.0122 for the first, 0.0278 for the second.

Going from CTACTTGC to AGAGGACG, the “PBM E-score” value falls from 0.0102 to -0.0487.

Going from CTATACAC to GAACGGCC, the “PBM E-score” value falls from 0.254 to -0.226.

Compared with ATCGGAGA, ATGCGTTC is higher in “PBM E-score” value: -0.161 for the first, 0.121 for the second.

Going from AACTAGCT to AAACAGGG, the “PBM E-score” value falls from -0.0073 to -0.108.

Going from AAGTCCTA to ACCCCGAA, the “PBM E-score” value rises from -0.0798 to 0.0302.

Compared with AAAGACGC, ACGCTTGC is lower in “PBM E-score” value: -0.0791 for the first, -0.135 for the second.

Compared with AATCTGTC, GTGAACAA is higher in “PBM E-score” value: -0.123 for the first, 0.187 for the second.

Compared with ACGATACA, ACTACCCC is lower in “PBM E-score” value: 0.229 for the first, -0.265 for the second.

Compared with AGTGCTAG, GCCAAGAA is higher in “PBM E-score” value: -0.116 for the first, -0.101 for the second.

Compared with TCTCAAAA, CAAGTGGC is higher in “PBM E-score” value: 0.00526 for the first, 0.0413 for the second.

First: CGGCTCCC
Second: CGCGCTTC
The “PBM E-score” value of the first is lower: -0.347 for the first, -0.0926 for the second.

Going from CACCTGAC to ATAAGCTG, the “PBM E-score” value falls from -0.0549 to -0.108.

Going from ATTCGGGG to AACAGCTT, the “PBM E-score” value rises from -0.183 to -0.0338.

Going from ATCGCGCC to GGAGTAAA, the “PBM E-score” value rises from -0.0399 to 0.155.

Going from CGGAGCGA to AACCATAT, the “PBM E-score” value falls from -0.0864 to -0.124.

Going from GGTTAGGA to GCACCGTA, the “PBM E-score” value rises from -0.15 to 0.041.

Going from GGTGCGGA to GCCTTACC, the “PBM E-score” value rises from -0.051 to 0.0815.

First: AGTTCCGG
Second: AACTACAA
The “PBM E-score” value of the first is lower: -0.359 for the first, 0.142 for the second.

Compared with AATGATGT, GAAGCCTC is lower in “PBM E-score” value: 0.105 for the first, -0.15 for the second.

Going from TGAGTCCA to TAGACATA, the “PBM E-score” value rises from -0.225 to 0.135.

Going from AGACTCAT to ACTCAGAG, the “PBM E-score” value rises from -0.122 to -0.101.

Going from AGGGTACT to ATCCAGCG, the “PBM E-score” value rises from -0.189 to -0.127.
